# Test results published in PMC4336329 (PLoS ONE, 2015).
# About 2,200 (0.71%) of roughly 310,000 compounds showed an effect of 50% or more. The effect is printed as a negative number. The list shows a part of the results.
# Biological target: human ether-à-go-go-related gene (hERG) potassium channel (human, UniProt Q12809)
# Test: primary screen, population patch clamp on CHO cells stably expressing hERG
# Sequence of human ether-à-go-go-related gene (hERG) potassium channel (Q12809 whole entry, looked up): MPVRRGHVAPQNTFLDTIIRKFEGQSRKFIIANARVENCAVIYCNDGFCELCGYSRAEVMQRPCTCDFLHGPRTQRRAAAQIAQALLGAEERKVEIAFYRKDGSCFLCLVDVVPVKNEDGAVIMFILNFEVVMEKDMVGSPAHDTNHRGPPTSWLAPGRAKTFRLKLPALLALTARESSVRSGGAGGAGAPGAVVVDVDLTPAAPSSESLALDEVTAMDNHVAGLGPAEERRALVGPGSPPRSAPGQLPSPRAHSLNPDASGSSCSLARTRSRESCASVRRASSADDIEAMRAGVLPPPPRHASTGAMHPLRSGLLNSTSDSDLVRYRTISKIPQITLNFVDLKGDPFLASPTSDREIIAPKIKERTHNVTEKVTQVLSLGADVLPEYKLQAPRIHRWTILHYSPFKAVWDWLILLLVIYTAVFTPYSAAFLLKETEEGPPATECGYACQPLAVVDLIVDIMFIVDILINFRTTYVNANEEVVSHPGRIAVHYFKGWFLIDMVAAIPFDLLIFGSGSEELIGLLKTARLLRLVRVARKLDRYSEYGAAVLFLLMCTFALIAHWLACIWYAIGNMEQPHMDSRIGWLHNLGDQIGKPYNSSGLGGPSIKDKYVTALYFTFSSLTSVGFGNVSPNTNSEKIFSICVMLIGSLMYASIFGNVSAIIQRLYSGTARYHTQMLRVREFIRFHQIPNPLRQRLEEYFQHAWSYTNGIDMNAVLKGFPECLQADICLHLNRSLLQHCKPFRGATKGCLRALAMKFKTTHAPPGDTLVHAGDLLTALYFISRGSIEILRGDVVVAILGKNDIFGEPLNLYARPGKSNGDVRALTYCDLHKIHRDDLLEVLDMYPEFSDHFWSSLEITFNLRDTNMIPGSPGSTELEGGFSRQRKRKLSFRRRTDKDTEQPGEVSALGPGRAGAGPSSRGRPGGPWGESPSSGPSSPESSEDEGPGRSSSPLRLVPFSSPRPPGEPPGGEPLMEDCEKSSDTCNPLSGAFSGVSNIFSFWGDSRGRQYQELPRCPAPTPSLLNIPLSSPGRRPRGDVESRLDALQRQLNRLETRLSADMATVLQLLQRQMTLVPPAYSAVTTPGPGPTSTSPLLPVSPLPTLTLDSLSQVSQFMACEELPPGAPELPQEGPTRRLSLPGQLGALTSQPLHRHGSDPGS
row,SMILES,"hERG current change (%, negative = inhibition) at 1uM [%]"
1,CC(OC(=O)c1n[nH]c2ccccc12)C(=O)NC1CCCCC1C (stereo not shown),5.39
2,CCOC(=O)c1sc(NC(NC(=O)c2ccco2)(C(=O)OC)C(F)(F)F)nc1C (stereo not shown),10.2
3,COc1ccc(S(=O)(=O)NNC(=O)C2COc3ccccc3O2)cc1[N+](=O)[O-] (stereo not shown),15
4,COc1ccc(Cc2nnc(SCC(=O)N(C)CC(=O)Nc3ccc(C)cc3)o2)cc1,4.06
5,S=c1sc2c(N3CCN(Cc4ccccc4)CC3)ncnc2n1-c1ccccc1,-5.55
6,C=CCN(CC=C)CCOc1ccc(C)cc1[N+](=O)[O-].O=C(O)C(=O)O,-62.5
7,Cc1cccc(N(C(=O)c2csnn2)C(C(=O)NCc2ccccc2)c2ccc(C)o2)c1 (stereo not shown),-0.187
8,Cc1ccc2nc(NC(=O)COC(=O)c3ccccn3)sc2c1,-10.4
9,CCOc1ccc(C/C(N)=N/n2cnnc2)cc1,-0.465
10,O=C(c1cc(-c2ccc(Cl)cc2)n(-c2cc(Cl)ccc2Cl)n1)N1CCOCC1,-3.98
11,COc1cccc2cc(C(=O)N3CCCCCCC3)c(=O)oc12,7.82
12,CSc1ncc(-c2ccccc2)cn1,10.5
13,COc1cc(-c2nnc(SCC#CCO)o2)cc(OC)c1OC,5.22
14,CC(C)OCCCNC(=S)Nc1ccc2nc3n(c(=O)c2c1)CCCCC3,0.691
15,O=C(Nc1cccc(NC(=O)c2ccc(Cl)cc2Cl)c1)c1cccnc1,16.5
16,O=C(CC1C(=O)NCCN1C(=O)Nc1ccccc1)Nc1ccc2c(c1)OCO2 (stereo not shown),16.4
17,CN(C1CCCCC1)S(=O)(=O)c1ccc(-c2ccccn2)s1,1.67
18,Cc1ccc(N(Cc2ccc(C(=O)NCC3CCCO3)cc2)S(C)(=O)=O)cc1C (stereo not shown),2.82
19,O=C(CCC(=O)NNC(=O)Nc1ccc(Cl)cc1)NCc1ccccc1,12.8
20,COc1ccccc1N(C)S(=O)(=O)c1ccc(C(=O)NC2=NCCS2)cc1,6.97
21,O=C(O)CC1S/C(=N\N=C/c2ccccc2)N(c2ccc(O)cc2)C1=O (stereo not shown),8.02
22,OC(CN1CCNCC1)Cn1ccc2ccccc21 (stereo not shown),7.24

row,SMILES,"hERG current change (%, negative = inhibition) at 1uM [%]"
1,CCOC(=O)N1CCN(C(=O)c2ccccc2NC(=O)c2ccc(F)cc2)CC1,15.6
2,CN(CC(=O)N1CCCC1)S(=O)(=O)c1cc(Cl)ccc1Cl,2.47
3,Cc1nn(S(=O)(=O)c2ccc([N+](=O)[O-])cc2)c(C)c1Sc1ccccc1,4.27
4,O=C(NC1CCCCC1)c1ccccc1NC(=O)C1CC(=O)N(c2ccc(Cl)cc2)C1 (stereo not shown),13.2
5,COc1ccccc1C(=O)C1CCCN(C(=O)c2cc(CC(C)C)nc(C)n2)C1 (stereo not shown),-39.8
6,COc1ccc([N+](=O)[O-])cc1NC(=O)COC(=O)c1ccccc1O,23.4
7,Cc1c(NS(=O)(=O)c2cccc([N+](=O)[O-])c2)c(=O)n(-c2ccccc2)n1C,12.9
8,CCn1c(-c2ccccc2Cl)nn(CC(=O)Nc2cc(Cl)ccc2Cl)c1=S,9.28
9,O=C(Nc1cccc(Br)c1)c1ccc(Cl)c(S(=O)(=O)N2CCOCC2)c1,9.35
10,COc1ccc(-c2nc(-c3ccccc3)nc(N3CCN(C)CC3)c2C#N)cc1,17.1
11,COCCCNC(=O)c1ccc(CN2CCc3ccccc3C2)cc1,12.8
12,Cc1cccc(NC(=O)CCc2nc3sc4c(c3c(=O)[nH]2)CCCC4)c1,11.5
13,CCN(CC(=O)Nc1c(F)cccc1F)C(=O)CSc1nnc(-c2ccco2)n1CC,9.72
14,O=S1(=O)CCOCCCN1Cc1ccc(Cl)cc1,17.9
15,COc1ccc(C2C(C#N)=C(N)Oc3n[nH]c(C)c32)cc1Cn1nc(C)c([N+](=O)[O-])c1C (stereo not shown),1.04
16,O=C(Cn1ccc2ccccc2c1=O)N1CCN(c2cccc(Cl)c2)CC1,13.3
17,O=C(NCc1ccco1)c1ccc(CN2CCOCC2)cc1,12.2
18,Cc1cc(C)c(NC(=O)NC(=O)c2cccc(F)c2)c(C)n1,1.84
19,Cc1ccc(N)c(C(O)(C(F)(F)F)C(F)(F)F)c1,-2.32
20,COc1cc(/C=C/C(=O)N2CCN(c3n[nH]c(=O)[nH]c3=O)CC2)cc(OC)c1OC,8.88
21,CCOC(=O)CN(C(=O)COc1nc(C)cc(C)c1C#N)c1cccc(Cl)c1,9.23
